# Measured values: the supplement of paper PMC8728848
# Some of the results follow.
# Columns and labels:
# Assay in all cases: glycan array binding signal (z-score within array); higher = stronger binding
# Conditions in all cases: glycan notation: IUPAC condensed, linker removed
# Gal(b1-3)GalNAc(b1-3)Gal = biological target: Gal(b1-3)GalNAc(b1-3)Gal
# Summary of the method: (§1)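 From the Consortium for Functional Glycomics database, 3228 arrays were curated, keeping only those whose protein sequence was available. Binding is given as a within-array Z-score averaged across arrays sharing a protein sequence and across linkers. Negative Z-scores can be read as non-binding.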
# [1] = biological target: Gal(b1-3)GalNAc(b1-3)Gal(a1-4)Gal(b1-4)Glc
# Summary of the method: as §1
# [2] = biological target: Gal(b1-3)GalNAc(b1-4)Gal(b1-4)Glc
# Summary of the method: as §1
# [3] = biological target: Gal(b1-3)GalNAc(b1-4)[Neu5Ac(a2-3)]Gal(b1-4)Glc
# Summary of the method: as §1
# Gal(b1-3)GlcNAc = biological target: Gal(b1-3)GlcNAc
# Summary of the method: as §1
# [4] = biological target: Gal(b1-3)GlcNAc(a1-3)Gal(b1-4)GlcNAc
# Summary of the method: as §1
# [5] = biological target: Gal(b1-3)GlcNAc(a1-6)Gal(b1-4)GlcNAc
# Summary of the method: as §1
# Gal(b1-3)GlcNAc(b1-2)Man = biological target: Gal(b1-3)GlcNAc(b1-2)Man
# Summary of the method: as §1
# [6] = biological target: Gal(b1-3)GlcNAc(b1-2)Man(a1-3)[Gal(b1-3)GlcNAc(b1-2)Man(a1-6)]Man(b1-4)GlcNAc(b1-4)GlcNAc
# Summary of the method: as §1
# [7] = biological target: Gal(b1-3)GlcNAc(b1-2)Man(a1-3)[Gal(b1-3)GlcNAc(b1-2)Man(a1-6)]Man(b1-4)GlcNAc(b1-4)[Fuc(a1-6)]GlcNAc
# Summary of the method: as §1
# [8] = biological target: Gal(b1-3)GlcNAc(b1-2)Man(a1-3)[GlcNAc(b1-4)][Gal(b1-3)GlcNAc(b1-2)Man(a1-6)]Man(b1-4)GlcNAc(b1-4)GlcNAc
# Summary of the method: as §1
# [9] = biological target: Gal(b1-3)GlcNAc(b1-2)[Gal(b1-3)GlcNAc(b1-6)]Man(a1-6)[Gal(b1-3)GlcNAc(b1-2)Man(a1-3)]Man(b1-4)GlcNAc(b1-4)GlcNAc
# Summary of the method: as §1
# [10] = biological target: Gal(b1-3)GlcNAc(b1-3)Gal(b1-3)GlcNAc
# Summary of the method: as §1
# [11] = biological target: Gal(b1-3)GlcNAc(b1-3)Gal(b1-4)Glc
# Summary of the method: as §1
# [12] = biological target: Gal(b1-3)GlcNAc(b1-3)Gal(b1-4)GlcNAc
# Summary of the method: as §1
# [13] = biological target: Gal(b1-3)GlcNAc(b1-3)Gal(b1-4)GlcNAc(b1-2)Man(a1-3)[Gal(b1-3)GlcNAc(b1-3)Gal(b1-4)GlcNAc(b1-2)Man(a1-6)]Man(b1-4)GlcNAc(b1-4)GlcNAc
# Summary of the method: as §1
# [14] = biological target: Gal(b1-3)GlcNAc(b1-3)Gal(b1-4)GlcNAc(b1-2)[Gal(b1-3)GlcNAc(b1-3)Gal(b1-4)GlcNAc(b1-6)]Man(a1-6)[Gal(b1-3)GlcNAc(b1-3)Gal(b1-4)GlcNAc(b1-2)Man(a1-3)]Man(b1-4)GlcNAc(b1-4)[Fuc(a1-6)]GlcNAc
# Summary of the method: as §1
# [15] = biological target: Gal(b1-3)GlcNAc(b1-3)Gal(b1-4)GlcNAc(b1-3)Gal(b1-4)GlcNAc(b1-2)[Gal(b1-3)GlcNAc(b1-3)Gal(b1-4)GlcNAc(b1-3)Gal(b1-4)GlcNAc(b1-6)]Man(a1-6)[Gal(b1-3)GlcNAc(b1-3)Gal(b1-4)GlcNAc(b1-3)Gal(b1-4)GlcNAc(b1-2)Man(a1-3)]Man(b1-4)GlcNAc(b1-4)[Fuc(a1-6)]GlcNAc
# Summary of the method: as §1
# [16] = biological target: Gal(b1-3)GlcNAc(b1-3)Gal(b1-4)GlcNAc(b1-6)[Gal(b1-3)GlcNAc(b1-3)]Gal(b1-4)Glc
# Summary of the method: as §1
# [17] = biological target: Gal(b1-3)GlcNAc(b1-3)Gal(b1-4)[Fuc(a1-3)]GlcNAc
# Summary of the method: as §1
# [18] = biological target: Gal(b1-3)GlcNAc(b1-3)Gal(b1-4)[Fuc(a1-3)]GlcNAc(b1-6)[Gal(b1-3)GlcNAc(b1-3)]Gal(b1-4)Glc
# Summary of the method: as §1
# [19] = biological target: Gal(b1-3)GlcNAc(b1-3)GalNAc
# Summary of the method: as §1
# [20] = biological target: Gal(b1-3)GlcNAc(b1-6)Gal(b1-4)GlcNAc
# Summary of the method: as §1
# [21] = biological target: Gal(b1-3)GlcNAc(b1-6)GalNAc
# Summary of the method: as §1
# [22] = biological target: Gal(b1-3)GlcNAc(b1-6)[Gal(b1-3)]GalNAc
# Summary of the method: as §1
# Gal(b1-3)GlcNAc6S = biological target: Gal(b1-3)GlcNAc6S
# Summary of the method: as §1
# [23] = biological target: Gal(b1-3)[Fuc(a1-4)]GlcNAc
# Summary of the method: as §1
# [24] = biological target: Gal(b1-3)[Fuc(a1-4)]GlcNAc(b1-2)Man
# Summary of the method: as §1
# [25] = biological target: Gal(b1-3)[Fuc(a1-4)]GlcNAc(b1-2)Man(a1-3)[Gal(b1-3)[Fuc(a1-4)]GlcNAc(b1-2)Man(a1-6)]Man(b1-4)GlcNAc(b1-4)GlcNAc
# Summary of the method: as §1
# [26] = biological target: Gal(b1-3)[Fuc(a1-4)]GlcNAc(b1-2)Man(a1-3)[Gal(b1-3)[Fuc(a1-4)]GlcNAc(b1-2)Man(a1-6)]Man(b1-4)GlcNAc(b1-4)[Fuc(a1-6)]GlcNAc
# Summary of the method: as §1
# [27] = biological target: Gal(b1-3)[Fuc(a1-4)]GlcNAc(b1-3)Gal(b1-3)[Fuc(a1-4)]GlcNAc
# Summary of the method: as §1
# [28] = biological target: Gal(b1-3)[Fuc(a1-4)]GlcNAc(b1-3)Gal(b1-4)GlcNAc
# Summary of the method: as §1
# [29] = biological target: Gal(b1-3)[Fuc(a1-4)]GlcNAc(b1-3)Gal(b1-4)[Fuc(a1-3)]GlcNAc
# Summary of the method: as §1
# [30] = biological target: Gal(b1-3)[Fuc(a1-4)]GlcNAc(b1-6)GalNAc
# Summary of the method: as §1
# [31] = biological target: Gal(b1-3)[GlcNAc(b1-6)]GalNAc
# Summary of the method: as §1
# [32] = biological target: Gal(b1-3)[Neu5Ac(a2-6)]GalNAc
# Summary of the method: as §1
# [33] = biological target: Gal(b1-3)[Neu5Ac(a2-6)]GlcNAc(b1-4)Gal(b1-4)Glc
# Summary of the method: as §1
binder,measurement,setting,value
PpFlo2 (Pichia pastoris) (protein) MGSSHHHHHHSSGLVPRGSHMDDSGNGDNSDTAYGCDITTNAVDGFDATIYQYNANDLRLIRDPTFMSTGYLGRNVLNKISGVTVPGFNIWNPSSRTATVYGVKNVNYYNMVLELKGYFKADVSGDYKLTLSHIDDSSMLFFGKETAFKCCDAGSIPLNEAPTDYSLFTIKPSNQVNSEVISATQYLEAGKYYPVRIVFVNALERARFDFKLTIPSGAVLDDFQNYIYQFGDLDENSCHE,glycan array binding signal (z-score),Gal(b1-3)GalNAc(b1-3)Gal,-0.272
same,glycan array binding signal (z-score),[1],-0.299
same,glycan array binding signal (z-score),[2],-0.297
same,glycan array binding signal (z-score),[3],-0.296
same,glycan array binding signal (z-score),Gal(b1-3)GlcNAc,-0.272
same,glycan array binding signal (z-score),[4],-0.268
same,glycan array binding signal (z-score),[5],-0.297
same,glycan array binding signal (z-score),Gal(b1-3)GlcNAc(b1-2)Man,-0.228
same,glycan array binding signal (z-score),[6],-0.133
same,glycan array binding signal (z-score),[7],-0.254
same,glycan array binding signal (z-score),[8],-0.213
same,glycan array binding signal (z-score),[9],-0.178
same,glycan array binding signal (z-score),[10],-0.232
same,glycan array binding signal (z-score),[11],-0.286
same,glycan array binding signal (z-score),[12],-0.261
same,glycan array binding signal (z-score),[13],-0.174
same,glycan array binding signal (z-score),[14],-0.258
same,glycan array binding signal (z-score),[15],-0.145
same,glycan array binding signal (z-score),[16],-0.122
same,glycan array binding signal (z-score),[17],-0.228
same,glycan array binding signal (z-score),[18],-0.231
same,glycan array binding signal (z-score),[19],-0.285
same,glycan array binding signal (z-score),[20],-0.287
same,glycan array binding signal (z-score),[21],-0.265
same,glycan array binding signal (z-score),[22],-0.267
same,glycan array binding signal (z-score),Gal(b1-3)GlcNAc6S,-0.275
same,glycan array binding signal (z-score),[23],-0.299
same,glycan array binding signal (z-score),[24],-0.269
same,glycan array binding signal (z-score),[25],-0.357
same,glycan array binding signal (z-score),[26],-0.259
same,glycan array binding signal (z-score),[27],-0.294
same,glycan array binding signal (z-score),[28],-0.259
same,glycan array binding signal (z-score),[29],-0.278
same,glycan array binding signal (z-score),[30],-0.262
same,glycan array binding signal (z-score),[31],0.516
same,glycan array binding signal (z-score),[32],-0.299
same,glycan array binding signal (z-score),[33],-0.271
